Assay results taken from PMC10726135.
The list shows a part of the results. At the low end of the ranking the order means little. The protein was read in a cell extract, so binding may be indirect.

Biological target: T1, HNF4alpha8 (COS-7 nuclear extract) (UniProt P41235-5)
T1 sequence: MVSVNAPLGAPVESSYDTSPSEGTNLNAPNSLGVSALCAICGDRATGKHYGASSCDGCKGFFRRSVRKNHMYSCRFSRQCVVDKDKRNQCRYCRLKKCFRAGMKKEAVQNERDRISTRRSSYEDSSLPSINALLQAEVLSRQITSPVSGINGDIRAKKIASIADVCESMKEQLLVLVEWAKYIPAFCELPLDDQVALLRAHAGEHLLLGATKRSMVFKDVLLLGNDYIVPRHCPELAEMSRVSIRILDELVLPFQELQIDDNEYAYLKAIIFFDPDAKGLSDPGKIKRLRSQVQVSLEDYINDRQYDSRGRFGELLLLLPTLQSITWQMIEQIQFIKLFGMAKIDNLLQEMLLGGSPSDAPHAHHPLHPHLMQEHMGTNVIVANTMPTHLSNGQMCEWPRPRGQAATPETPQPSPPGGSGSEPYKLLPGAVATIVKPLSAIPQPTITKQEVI
Test: protein-binding microarray
Details: COS-7 nuclear extract on double-stranded Agilent 4x180k PBM; binding buffer, salt, pH and temperature not given; high values mean tight binding; double strand, one strand shown; sequences stand for … in …GCCTAGGGAGATTAGAGTATCGGTCGA

| Sequence | binding signal (log2 normalized intensity) |
| --- | --- |
| CCACCTTCCCGGCCTGGCCACTCCGTTTGC | -1.15 |
| TTCAACTATTCCTCGACCTTCGGCTGGGGA | 1.88 |
| GCACCTGTTTCTGGAGAATGCTGTCCTGCC | 0.0974 |
| TTCAAAGGGAAAAAATAATCAGCTTAAGCA | -1.34 |
| ACGTGAGGGCAGCATAATCACATACAGGCC | -1.42 |
| GAACCTGTGCTTCTGGTTCTGGACTAAGAA | 1.04 |
| AAAATAGTGACCCTGTCTCTCAGTCTCTGT | 1.45 |
| AATCCCCGAATGTCCAGACTGTGCATACCA | 1.62 |
| CAAACATTACTGGCACACAGCAGATTACAT | -0.928 |
| ATGCCCCAAATGACGCTTTAAGTAGGCACT | -0.0679 |
| CTAAAATATTCACTATCTGATCCTTTACAG | 0.871 |
| TGGCCCTGATTTCAAAGTTCAGTTTGATTA | 2.7 |
| GGAGGACAGACTCTGGGAGATAAAGCAGAG | -1.27 |
| AGGATCGCTTGAGCCTGGGAGGCAAAGGTT | 3.68 |
| CTCACGCGCTCCCTGTTTAGAATTCTGCCT | -1.31 |
| ATAGAGAGTTGGGAGGGAACAGTCCAGAGT | 0.144 |
| AGAGAGCCGGAAACTCCACCTTCAGATCAT | -1.4 |
| GAATCTACAGAATTCTCATGGAGGACTTTG | 3.31 |
| GGAGAATGGCAAGAGATAAGGGTGGCCATC | -0.994 |
| TGGGCTAAAAAGGAAGCTGTGTGTGTGAGT | 1.82 |
| TCCTTCAGCGTGAACTTTGACATGAGAGAA | 4.21 |
| CTTGACGCTAACTTCCAGATCAAAGGACAT | 1.16 |
| AGGTTCCTCGCCTATGGTATGTATGGAATG | 2.2 |
| ATTGCCTGGCATTATCAGTGCTGCCATTTG | -0.95 |
| AAGAGGTTAAAGACCTTTGGGTAGGAATAG | 1.47 |

| Sequence | binding signal (log2 normalized intensity) |
| --- | --- |
| ACATTTGGTGTAAGCACTTGTGGTATGTTT | 1.98 |
| CACATGCTATTATTTTCCATCAGTGGACTT | 3.95 |
| TTTGGAAAAGATTAAGTTATCCATGGAGTG | 0.897 |
| TCTTAGGAAAGAACAGGTCAAAGGTCAGTT | 9.61 |
| ATCACAATCCTTAAGCAGCAGATAAGGCTA | -1.23 |
| TTTAATACCTCTGATCACTACAAGCTTTGA | -1.2 |
| AGCAGGATAGAAGGAAACAGTTCAGATCTG | -1.24 |
| TGAAGTGAAGTTACAAAGGTCACACACCTG | 4.94 |
| AAACACCCCTCCCCCACACAGACAAAGACA | 5.03 |
| GCCAGTGGGGGTTGGTCTCTAAAACCCCCA | 1.27 |
| AACAAAGATTGCTTGCCAGTTCCCTCACTG | -1.32 |
| ATGTTCTAACCATAGGAGGCTGGTCTAAGT | -0.241 |
| CTTTCATCTCGGCTGGCTACTGCTCCACCT | -1.35 |
| AAATATAGTTAAAGCCAGCTGTCTATCCTT | -1.38 |
| GTTCCACTGGTAACTAGGTTAATGTGAACA | 1.33 |
| AGGTAATAGGAAAAGGGAGTTTTCTGCTCT | -1.28 |
| AGGTCATCCTGGGCTACCGATATGAGGCTT | -1.23 |
| ACAATTGGCCAAAGTTCAGTAAATCTTAGA | 2.67 |
| TCTGTTATCAGACACAAGAATTACTACTCT | -1.2 |
| CCTCACCTCCAGGGAGGGGAGAGGGGGTTA | -1.2 |
| AGAACCTGCCCATGACCTTTGGACTGTGAC | 10.2 |
| GTAAGATAAGGTGAACATACGTGGCTACCT | -1.25 |
| CAATGCCACAGAAAAGGCAGCAGCTTGGAA | -1.32 |
| AGCAGAAAGGAGGCAGAGACTGCCCTGAGC | -1.12 |
| TTTGCAATCCTCCACTCTCCAAAATAGGGT | 0.272 |

| Sequence | binding signal (log2 normalized intensity) |
| --- | --- |
| GGAAATTACCCTCTAATGGTATTCACTTTA | 0.569 |
| TGGAGATAACAGTGTAAGGACATTGCCCCC | 6.22 |
| ATGGACTTTGAAGGAGATTCCTGTGTCAGC | 1.23 |
| CAGCAGCTATCAGTGGTCCGAACTACAGGG | -1.27 |
| TGAACTTTGCCTTAGGCCATTGTCCTTTGG | 3.43 |
| GCAGAGCTATGGAATTTTGGCCTTTTTGTC | 1.84 |
| CTATTGGTTGTCAGACTGGTGTAGTGGGGA | 1.13 |
| ACACTTGTACATACTTTTGGGGTATGTGTG | 2.28 |
| AAATAGCTCAAGCCTGTTCCGACCTTAGTA | 2.01 |
| CGGACAGGCATTAGCAATGCGAGAGTACAC | -0.523 |
| CTGCCTAGTTTTGTAACTTAAAGATCATGT | 1.7 |
| GCATCTGGGGGCTTGTCAGACAAGTTGCAG | -1.21 |
| GACTGGAAGTTGCCCGAGCTGCCCTTTATC | 3.27 |
| CTCCGGGTAAAGGTGAAGGCTGACCACGGG | -0.56 |
| CTTGCCTCTGTGCTCCCAGTTCCCTCATTA | -0.174 |
| ATATGTTCGGGAGACATGTGGCCTTTGGTA | 3.47 |
| TGCTGACCTTTGTTCACATTTGTGCTCAGC | 4.37 |
| TTGGACCACAGAGTGACCTGGTATTGCAAG | 2.41 |
| ACATGCCTATGACCGAGGGTTAAGCTCATG | 0.32 |
| CCTCTTTCAAGCCTGAACAAACATGAGGGA | -0.461 |
| ACTCCTACCACCAAAGAAAAAAGCCAATCT | -1.11 |
| CTTAGCAGTGGGAGACAGGCATTAACCCTT | 1.74 |
| GGAACAGTCCAGAGTCTGACAGAACTAAGC | -0.815 |
| CCATTAAATCTTCCCTCCTGTGAACTCGCG | 1.14 |
| GCCGTCCTCAGTGAATCACAGCAGCTTCAA | -1.25 |

| Sequence | binding signal (log2 normalized intensity) |
| --- | --- |
| AGTAGGATTTCTAGTTAATATCTAAGATGT | 0.852 |
| ACATGCTGTCTAGGCCAGAGTTCACTTTCC | 2.76 |
| CAGTTTCCAGGGAGGAGAGAAGGGCTGAAG | -1.17 |
| ACTGCTTACCCTGCAGTGTGACCTTTGCCT | 8.52 |
| CCAGGAGCAGAAAGGAGGCAGAGACTGCCC | -1.32 |
| AGACAAAAGTCCGGAATTTCCTCCTGGCAG | -1.31 |
| GAGGAATGCTGGTAAACACTGAGCTTTCAT | -1.1 |
| TCCTCTCTCCCACAAGGGCAGCCCTGTTTA | -0.515 |
| GAGCCACTTCACTGGTGTGATCTTTTTTCT | 1.38 |
| TAGCCCTGAACAAACAGCTTCCAGAATAGC | -1.24 |
| TCTGGTGTTCTCTTGGCCAACAACTAGGGC | 0.427 |
| AGAGTGGCCTTTGGAATCAAACAGATGTAG | 3.03 |
| TTAACTGGAGATAACACAACCCCTACTGTA | 1.63 |
| GAGGTGTCCTGTAAATAGTGTGTCAGGGAA | 0.636 |
| GCTGCCAGAGGGTGGCAGCAGCAGGCAGGG | 2.08 |
| AAGTGACCCTGGTCTTTGCCCTTTCCTAGA | 3.98 |
| GTCGGGCGGACGGGGAACCCAGCAAACCTG | -1.47 |
| GCGAGAACTTACTTTTGGCCATCGCACGAG | -1.38 |
| GGAGAAGGAAAAAAATAGGAGACTGTCTTA | -1.29 |
| AGCTCCGACTCAGTGGGGGGGGGGGGGGGG | -1.33 |
| TATTTACTGTCCTCAAACTGTCACCTGCCC | 1.74 |
| TGGAGAGAATTCCCATCCCACTAGGTGGCG | -1.26 |
| CATTGGACCCTCCCAGCCAAACCCCACTCC | 5.25 |
| TAAAGATTATGAACTAATTTGTCTTTTCTC | -1.35 |
| ACATGAGGGACTGGGAAGAGAAGGTGAACT | 0.874 |

| Sequence | binding signal (log2 normalized intensity) |
| --- | --- |
| CCAAGGGTATGTTTGTGATATTGTGAAATA | 1.65 |
| GTCCAAGATGGCAATGTTCCTGCTCTGTCA | -1.2 |
| CACCAATGATCAAAGGTTAGTCTTAGGACC | 3.87 |
| GCAAATGTGTCTTTTTTAGTCAGCATAGTT | 1.34 |
| TACTCATGTGGTCCTAAGACTAACCTTTGA | 7.11 |
| TCCTGGGAGAGAAAAGCAAGATTGGGAGCT | -1.1 |
| CCCATGCCCTTAGCCACTGCATGATAGGCC | -1.31 |
| GCACTTTGCACCTGGGCTGGAAAGGCCACC | 3.26 |
| ACAATGCCTTGTGTACTGAGCAGGGTCCAA | 3.88 |
| TCCTCTCCTACTTCTGTTTAAACTGATAAC | 0.76 |
| CCTATGGTCTGTTCACTTGCCAAGCCTAGT | -0.838 |
| AGAGTGATCTTTGGGCCATATTGACTAAAC | 1.12 |
| GATGGGGTCATGATAAGAGCAGAGACAGGC | -0.864 |
| CAGTAGGAGTTGGAACGGGGGCAAGGGTCA | 6.1 |
| GGCCATCTAGCTACAGGAGAACAAAGTTCA | 4.35 |
| CTAGTGATGTGGAAATCTGGACTCAGCAGA | 1.92 |
| ATCACTGAAGCGACCCCTCGAGGCAACCTT | 1.75 |
| GGAGTAGTCAAATTTGTCTAGCGCAAATGA | -1.38 |
| CCACATTCTGAGACTAAAGAGTACACAAAG | -1 |
| CAGGCGGAGCACACCAGGCCCTCGGCATCA | -1.16 |
| AAGTTCAACCTCATTATCTTCAGTCTAGAA | 0.29 |
| TGTCTACCCTTTTGCCCTTTGAGCTTCTGT | 5.93 |
| AGTAGATAACTTCAAGGAGCTCGGCGCCAG | -1.27 |
| TTGAGTCTGGTGTTCTCTTGGCCAACAACT | 0.272 |
| AGTCCAAATTCCTAACTATGGTTGATAAGG | 0.798 |

| Sequence | binding signal (log2 normalized intensity) |
| --- | --- |
| ATTTCTAGGTTTGATCTTTGCCCTACAATT | 6.36 |
| ACCCCTTGCAAATAAGTCCGGCAGAGCTAT | -1.37 |
| ACTCAGGTCATCAGGACTCTAACTGGCTTT | -0.45 |
| ATCTCGTGTCTTTCATCTCTGTAAACTGGC | 1.02 |
| GACCTCTGCCCTTCCACCCACTTTATCTTC | 3.59 |
| ACAAGTGAAAGTCTAAAGTTCAGTGAGATT | 3.78 |
| TAACATTGCTGACCCCCTACATAGAGAGCA | 3.08 |
| ACTTCTTTGAAGAAGACAAAACAGCGTACT | -1.17 |
| AGAGCTCTGTGCCTTTCTCTGCAGCTTAAA | -1.43 |
| CTTAGAAAGAGGGTGTAAGAGTGAACTCTG | 2.79 |
| GTGACTGAAGTCCAACCCTCCGTTTCTCTG | 1.39 |
| AGGCTTAGGCCAGGCGGAGCACACCAGGCC | -1.41 |
| GGGGCCTAGCTTGTAAAGGGTAATCTGCTT | -0.484 |
| GCCTCCTCCATCTCCTCCACCAGCTTGCTG | -1.28 |
| GACCCATCCCTCAGGGTCCATATCCAATAA | 2.61 |
| CTCAGCTCCTAAAGGCAGCCCCTTATCAGG | -1.3 |
| AGCAAACACAAACTATGACCTTTGAAACTT | 7.82 |
| ATTCTTTCTGATAAGAGCATTTTTGTATGC | 0.989 |
| ATCTTGCTGTACACTCAGGTCTTTCTGGAG | 0.683 |
| CTCCGCCTCCCTCCCCCTTTCTCCGCTAAG | 3 |
